Source: the supplement of paper PMC11417369
± gives the standard deviation of the averaged measurements. This is one part of the list.

System: PfAP2-EXP AP2 domain (GST-tagged)
Assay: gcPBM binding intensity (ln(normalized median fluorescence intensity)); higher = stronger DNA binding
Procedure, shortened: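 DNA-binding domains from P. falciparum, fused to GST and produced in E. coli, were put on an Agilent 4 × 180k double-stranded probe array for 1 h in 1× PBS holding 1% milk, 0.2 mg/ml BSA, 0.5% salmon testes DNA and 0.03% Triton X-100. Probes were primer-extended, 36 bp long and drawn from intergenic genomic regions, with negative controls included. After Alexa488 anti-GST antibody detection and a 488 nm scan, binding intensity was set as the highest Masliner-normalised natural-log median intensity across replicate spots of either probe orientation.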

In order of rising “gcPBM binding intensity (ln)” value:
1. TTGTATCTTCATTTTATCAGAAAAAAAAAAAAAAAT [CACACA_negctrl_site775]  8.09 ± 0.48
2. AACACATACAAACACACACACAAAAAAAAAAAAAAA [CACACA_site393]  8.14 ± 0.36
3. ATAAAATGTATATGAATGCACTTGAAGTTTTTTTTT  8.19 ± 0.26
4. TTTTATAGTCTTATGGGTACAAAATATTAACCCACG [XGTACX_site1131]  8.21 ± 0.2
5. AATAAATAAATAAATTAATATATATATATATATAGA [CACACA_negctrl_site1661]  8.24 ± 0.29
6. TTAGTGTATTAATTCTCACACACTAAGAAAAAAAAA [CACACA_site3878]  8.26 ± 0.4
7. TTATGTGTATACTAAGAACACACAAGTTACTTGGTG [CACACA_site8467]  8.28 ± 0.4
8. TTAATATTTACAAAATGTACAGATTATTTATTGTTG [XGTACX_site1270]  8.29 ± 0.33
9. TATTGAAAAAATAAAAGTACAAACTCTTATAATATG [XGTACX_site8196]  8.3 ± 0.33
10. TAATAAAACATATATACACACATTATGTATACATAT [CACACA_site1703]  8.31 ± 0.38
11. ATTCAATATAAATACACACACACTTTTAATAATTAA [CACACA_site5963]  8.4 ± 0.54
12. ATTCACTGGTATGCATGAAAAAAAATATTATTATAA [CACACA_negctrl_site702]  8.46 ± 0.4
13. ATTATATATGTATGGTGTACTAAGAATATTTTTTTA [XGTACX_site1950]  8.47 ± 0.26
14. TATATGTGACATGAATGTACCCAAATTATATAAGAA [XGTACX_site3937]  8.48 ± 0.32
15. AAAAAAACGATCGATCGTACTTATATTTACACATTC [XGTACX_site2883]  8.49 ± 0.35
16. CTAAACAAAAAATAATGTACACATACATAAAAAATA [XGTACX_site1808]  8.51 ± 0.28
17. TATATATATTTATACACACACATATATTTATATATT [CACACA_site484]  8.52 ± 0.25
18. ATTTAATATATTTATTGTACATATAAAATAAAAGAA [XGTACX_site2413]  8.55 ± 0.26
19. AAATATGTCAAATATACACACATAATAACTAGAATA [CACACA_site7151]  8.56 ± 0.48
20. TATTTTTTCTTAAACACACACATATATATATATAAT [CACACA_site5567]  8.56 ± 0.39
21. TGAAAATTAATAAAAAGTACATAGTCAGATTTGTGA [XGTACX_site2450]  8.57 ± 0.31
22. TGAATACTTATGTTCGCACACATGCAAATTAAAAAA [CACACA_site4048]  8.62 ± 0.22
23. AGCACCCACCAACACACACACACACCCACCCACCGA [CACACA_site368]  8.63 ± 0.61
24. ATATATATTTTATTATGTACTTACTTCTTTTCTTAA [XGTACX_site6163]  8.68 ± 0.4
25. CCCGAACAAACAAATAAACACACAAAAAAAAATATA [CACACA_site8540]  8.69 ± 0.74
26. ACAATACAAATATATACACACATACATACATACATA [CACACA_site5699]  8.71 ± 0.39
27. CATAGGAACATAAGTTGTACGCTATACATACAACAT [XGTACX_site1054]  8.71 ± 0.33
28. TCTGTGTTTTTGGGTACACACAAATAGCTTGTATAT [CACACA_site4002]  8.72 ± 0.19
29. TAATAATAATACCAGCGTACATTTTTCTTTCCTACG [XGTACX_site4056]  8.76 ± 0.58
30. ATTTTATTTATATACACACACATATATATATTATAT [CACACA_site822]  8.77 ± 0.44
31. TTCCTTAATCAATATTGTACTTTTTATAAATTTAGT [XGTACX_site3678]  8.78 ± 0.38
32. AAAGGGTTACAAGAGGAACACACAAAAAAATAAATA [CACACA_site8406]  8.81 ± 0.47
33. ATAAATCCATGGGTAGTGCGCATTTTTTTTTTTTTT [GTGCAC_site9732]  8.82 ± 0.38
34. AATAATTATAATAAGGGTACGTATCTCACAGGAAAA [XGTACX_site4187]  8.9 ± 0.35
35. ACATTCAATAAACGTCGTACACTTTCCTTTTTATGA [XGTACX_site3274]  8.9 ± 0.47
36. TCTCCTTGTTCCTTTTTTTTAAAAAAAAACATTAAA [CACACA_negctrl_site679]  8.9 ± 0.4
37. ACATGGTGATAATACTGTACAAAAATAAATAAATAC [XGTACX_site897]  8.97 ± 0.45
38. TTGTTTGGTTATAATTGTACGCATGTAATTACATAT [XGTACX_site4972]  9.1 ± 0.31
39. TTAATTTGTAAATAATGTACATATAAATGGAAAGTA [XGTACX_site2743]  9.12 ± 0.38
40. TTTTTTAATATTTATACATGCATGCCGATTACTATA [TGCATGCA_site26]  9.45 ± 0.2
41. TTATTTTTCTAAAAAGCATGCAAATAAAGATATGAA [TGCATGCA_site1032]  9.52 ± 0.33
42. TATTCTTACACGTTTGCACACTAAAATATATATATA [CACACA_site435]  9.54 ± 0.085
43. ATATATATATATAGGGGTACTTAAATTTTACTAACC [XGTACX_site1832]  10 ± 0.38
44. ATTTTGATAACCGTACGTACATATATATATATATAT [XGTACX_site6605]  10.3 ± 0.35
